# Data: PubChem BioAssay (NCATS)
# The shares of active, inactive and inconclusive entries below differ from those in the screen. Potencies of inconclusive entries are left out as doubtful fits. The source made the active and inactive calls. Calls come from the whole dose curve; as a rule, active = well fitted inhibition curve with a large enough effect; inconclusive = small, poorly fitted or top-dose-only effect; inactive = no such curve, though single readings can be large or run the other way.
# Target: Muscarinic acetylcholine receptor M1 (Rattus norvegicus) (UniProt P08482)
# UniProt P08482, sequence (P08482 whole entry, looked up): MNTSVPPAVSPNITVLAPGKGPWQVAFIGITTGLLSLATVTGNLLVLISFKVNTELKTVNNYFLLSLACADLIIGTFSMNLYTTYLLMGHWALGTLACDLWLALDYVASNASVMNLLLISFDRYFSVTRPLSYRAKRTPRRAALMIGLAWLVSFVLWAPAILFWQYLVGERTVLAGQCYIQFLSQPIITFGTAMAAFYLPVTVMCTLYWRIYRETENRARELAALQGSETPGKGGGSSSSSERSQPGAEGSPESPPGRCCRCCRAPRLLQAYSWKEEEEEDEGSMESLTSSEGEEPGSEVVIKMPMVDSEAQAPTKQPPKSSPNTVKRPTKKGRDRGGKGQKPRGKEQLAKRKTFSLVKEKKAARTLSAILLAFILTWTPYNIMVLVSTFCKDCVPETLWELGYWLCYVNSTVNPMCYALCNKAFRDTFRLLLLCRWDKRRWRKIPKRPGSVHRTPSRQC
# Experiment: qHTS Assay for Antagonists of Acetylcholine Muscarinic M1 Receptor: Kinetic Measurement of Intracellular Calcium Response (AID 943); note: nearly all actives have a fitted effect of over 75% in size
# Settings: M1-expressing cells, kinetic intracellular calcium fluorescence; series mostly up to 35.3 µM
# How it was run: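 Intracellular calcium flux, recorded with Fluo-4 in a kinetic plate reader, served as signal; the response to carbachol at EC80 (100 nM final) was taken as maximal over minimal fluorescence after a 10 min compound pre-incubation in rat M1-CHO cells.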
# Potency is the fitted concentration of half-maximal effect; tags give direction and shape of the fitted curve.
row,SMILES,Potency
1,O=c1cc(O)cc(/C=C\c2ccc(O)c(O)c2)o1,inactive
2,Nc1c2c(nc3ccccc13)CCC[C@H]2O,inactive
3,CO/N=C(\C(=O)N[C@@H]1C(=O)N2C(C(=O)O)=C(CSc3nc(=O)c(O)nn3C)CS[C@@H]12)c1csc(N)n1,"inconclusive [inhibitor, full curve, poor fit]"
4,OC[C@@H]1O[C@@H](n2cnc3c(NC4CCCCC4)ncnc32)[C@@H](O)[C@H]1O,inactive
